# Assay results: article PMC4336329 (PLoS ONE, 2015)
# Out of some 310,000 compounds screened, about 14,000 (4.5%) showed an effect of 50% or more. The effect is printed as a negative number. The list shows a part of the results.
# Biological target: human ether-à-go-go-related gene (hERG) potassium channel (human, UniProt Q12809)
# Experiment: primary screen, population patch clamp on CHO cells stably expressing hERG
# 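Note: peak tail current of the secondary pulse compared with the same well before compound.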
# human ether-à-go-go-related gene (hERG) potassium channel, sequence (Q12809 whole entry, looked up): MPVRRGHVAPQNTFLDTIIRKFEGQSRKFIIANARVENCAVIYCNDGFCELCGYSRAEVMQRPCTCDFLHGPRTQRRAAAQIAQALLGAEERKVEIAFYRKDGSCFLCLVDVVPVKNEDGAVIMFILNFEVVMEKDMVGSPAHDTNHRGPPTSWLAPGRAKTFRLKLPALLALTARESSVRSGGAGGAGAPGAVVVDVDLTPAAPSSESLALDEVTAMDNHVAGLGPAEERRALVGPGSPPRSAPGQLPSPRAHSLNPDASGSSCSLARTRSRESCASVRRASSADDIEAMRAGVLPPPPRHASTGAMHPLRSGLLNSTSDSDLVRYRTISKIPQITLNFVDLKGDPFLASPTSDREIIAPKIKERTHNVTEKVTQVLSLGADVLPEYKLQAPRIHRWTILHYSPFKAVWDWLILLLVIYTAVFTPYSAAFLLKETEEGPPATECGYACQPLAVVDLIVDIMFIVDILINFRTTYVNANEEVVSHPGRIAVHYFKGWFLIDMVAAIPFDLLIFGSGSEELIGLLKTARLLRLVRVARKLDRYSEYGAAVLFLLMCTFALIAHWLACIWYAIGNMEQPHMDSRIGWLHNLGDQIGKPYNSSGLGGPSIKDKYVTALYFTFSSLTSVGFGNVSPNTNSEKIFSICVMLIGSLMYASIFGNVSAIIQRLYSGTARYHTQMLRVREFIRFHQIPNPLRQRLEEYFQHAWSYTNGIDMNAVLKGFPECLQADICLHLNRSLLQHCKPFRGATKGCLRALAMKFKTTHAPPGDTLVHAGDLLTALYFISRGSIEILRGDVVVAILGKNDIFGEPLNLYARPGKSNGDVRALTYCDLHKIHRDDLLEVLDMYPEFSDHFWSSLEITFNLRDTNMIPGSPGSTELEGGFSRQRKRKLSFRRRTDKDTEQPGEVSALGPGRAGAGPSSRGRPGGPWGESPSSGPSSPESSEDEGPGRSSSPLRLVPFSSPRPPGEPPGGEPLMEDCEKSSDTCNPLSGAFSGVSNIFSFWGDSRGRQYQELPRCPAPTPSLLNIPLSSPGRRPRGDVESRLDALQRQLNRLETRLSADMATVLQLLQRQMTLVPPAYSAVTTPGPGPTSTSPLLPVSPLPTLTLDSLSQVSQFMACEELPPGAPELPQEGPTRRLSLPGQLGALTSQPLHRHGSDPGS
row,SMILES,"hERG current change (%, negative = inhibition) at 10uM [%]"
1,O=C(Nc1c(F)cc(F)cc1Br)c1cccnc1,8.61
2,COc1ccc(OCCCC(=O)OC(C)C(=O)Nc2ccc(NC(C)=O)cc2)cc1 (stereo not shown),11
3,O=S(=O)(Nc1ncccn1)c1ccc(NC(=S)NCCc2ccc(Cl)cc2)cc1,28.9
4,CCc1nc(-c2cc3ccc(C)cc3[nH]c2=O)no1,-27.4
5,CCOC(=O)C1CCCN(C(=O)c2ccc(CNS(=O)(=O)c3ccc(C)cc3)cc2)C1 (stereo not shown),-3.9
6,CCOC(=O)C1C(=O)OC2(CCCCC2)C1C(=O)OCC (stereo not shown),6.62
7,CN1C(=O)CC(c2ccccc2)Nc2ccccc21.Cl (stereo not shown),0.871
8,O=C(CCNC(=O)N1CCn2c1nc1ccccc12)NCc1ccc(F)cc1,-6.29
9,Cc1cc(C(=O)NC2CCCC2)on1,-10.8
10,O=C(c1ccc(Cl)c(S(=O)(=O)N2CCCC2)c1)N1CCN(c2ccccc2F)CC1,-20.6
11,CC(NC(=O)C1CCC(CNc2c(N3CCCCC3)c(=O)c2=O)CC1)c1ccccc1 (stereo not shown),-2.3
12,COc1ccc(OC)c(C2C3=C(COC3=O)Nc3cc4c(cc32)OCO4)c1 (stereo not shown),6.75
13,COCC(C)n1c(C)cc(C(=O)COC(=O)c2ccc3c(c2)NC(=O)CS3)c1C (stereo not shown),2.7
14,O=C(Oc1oc(-c2ccco2)nc1C=Nc1ccccc1)c1ccoc1,13.6
15,CCOC(=O)c1sc(N2C(=O)C(O)=C(C(=O)c3ccco3)C2c2ccc(C)o2)nc1C (stereo not shown),6.21
16,COc1ccccc1NC(=O)C1=C(C)NC(=O)NC1c1ccc(C)cc1 (stereo not shown),5.17
17,c1ccc(-c2noc(CSc3nnnn3C3CCCCC3)n2)cc1,-17.8
18,CCn1cc(/C=N/NC(=O)c2ccc3c(c2)OCO3)c(C)n1,8.17
19,COc1ccc(OC)c(S(=O)(=O)N2CCC(C(=O)N3CCN(c4ccc(F)cc4)CC3)CC2)c1,-78
20,CCn1c(SCC(=O)N2CCCCC2)nc2c(c1=O)SCC2,8.15
21,Cc1cc(=O)oc2c(C)c(OCC(=O)NCCCN3CCOCC3)ccc12,14.4
22,CSc1nc(Cc2ccc(Cl)cc2)nc2ccccc12,-16.7

row,SMILES,"hERG current change (%, negative = inhibition) at 10uM [%]"
1,Cc1noc(C)c1C(=O)OCC(=O)Nc1ccccc1SCC#N,-10.5
2,COc1cccc(NC(=O)CN(C)C(=O)CSc2nc(C)cc(C)n2)c1,-1.24
3,C/C(=N\NC(=O)COc1cc(C)cc(C)c1)c1cccc(NC(=O)C2CCC2)c1,-11.1
4,CC(Oc1ccc2c(-c3ccccc3)cc(=O)oc2c1)C(=O)NCc1ccccn1 (stereo not shown),-50.9
5,COc1ccc(C2(C(=O)N3CCOCC3)CCCC2)cc1,15.4
6,O=C(Nc1ccc(Cl)cn1)c1cc(S(=O)(=O)N2CCCCC2)ccc1Cl,-6.08
7,Cc1cccc(NC(=O)c2onc3c2CCCC3)n1,-9.16
8,Cn1c(=O)c2[nH]c(N3CCOCC3)nc2n(-c2ccccc2)c1=O,7.64
9,CC(C)Oc1ccc(C(=O)NC(C)(C)CO)cc1,19.6
10,COc1cc(Br)cc(C(c2c(C)n(C)n(-c3ccccc3)c2=O)c2c(C)n(C)n(-c3ccccc3)c2=O)c1O,2.99
11,Cc1ccc(S(=O)(=O)NC2=NCN(C3CCN(Cc4ccccc4)CC3)CN2)cc1,-15.4
12,COC(=O)CN1C(=O)[C@H]2[C@@H](/C=C/c3ccccc3)N3C(=O)CN(CC4CC4)C(=O)[C@@]3(Cc3ccccc3)[C@H]2C1=O,6.01
13,CCCN(C(=O)CCNC(=O)Cn1cnc2ccccc2c1=O)c1cccc(Cl)c1,-2.75
14,Cc1ccc(NC(=O)C(C)C(=O)Nc2ccc(C)cc2)cc1,14.3
15,CCc1ccc(S(=O)(=O)c2n[nH]n3c2nc(=O)c2ccccc23)cc1,-28.5
16,CCOC(=O)c1cc(C(=O)OCC)c2cc(Br)ccc2n1,-16.5
17,Cc1cc(C)nc(NC(=O)/C=C/c2ccccc2Cl)c1,8.35
18,O=C(COc1ccc2c(-c3ccccc3)cc(=O)oc2c1)N[C@@H](Cc1c[nH]c2ccc(O)cc12)C(=O)O,21.6
19,CCOC(=O)c1sc2nc(N3CCOCC3)c3c(c2c1N)CC(C(C)C)OC3 (stereo not shown),15.2
20,C=CCNC(=O)CN1C(=O)c2cccc3cccc1c23,-4.21
21,O=C(Nc1cc2c(cc1Br)OCCCO2)c1cccnc1,-2.34
